Reference: the supplement of paper PMC3334620
Over roughly 33,000 sequences, “E-score (-0.5 to 0.5)” has its median near -0.054; the highest 2% begin near 0.39. This is one part of the list.

Target: Ylr278c (UniProt Q05854)
Assay: PBM E-score (8-mer binding enrichment) (E-score (-0.5 to 0.5)); higher = stronger / more preferred TF binding; most listed sequences are background and not binding sites
Conditions: protein concentration: 200 nM; construct: GST-DNA-binding domain
Protocol: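 Universal 'all 10-mer' protein binding microarrays (Agilent AMADID 015681) probed with GST-tagged S. cerevisiae TFs (full-length or DBD) made by in vitro transcription/translation (PURExpress), about 100-200 nM. Bound TF was detected with fluorescent anti-GST. Each ungapped 8-mer (which stands for itself and its reverse complement) is scored by the PBM enrichment score (E-score), a modified Wilcoxon-Mann-Whitney statistic from -0.5 to +0.5, computed with the Universal PBM Analysis Suite. Scale: above 0.35 generally sequence-specific binding.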

Row | Sequence | PBM E-score
1 | CTCTCAAA | -0.144
2 | AAGCTGGT | -0.15
3 | TGAAGCCA | -0.253
4 | ATAACAGC | -0.124
5 | CCACGTTC | -0.0469
6 | ATTGCTTG | -0.205
7 | GGTAAGGA | -0.195
8 | CGTCCACC | -0.00012
9 | AAAACAAT | 0.00158
10 | CATTGGGC | -0.136
11 | ATCCTTCA | -0.0414
12 | GACTTCAC | -0.0108
13 | GCGAGCGC | 0.108
14 | GCACTCAC | -0.0948
15 | GGCTTAAA | 0.035
16 | AGGGCCCC | -0.123
17 | TGAGCGCA | -0.166
18 | CGCCCAGA | -0.0502
19 | ACCGTTTG | -0.114
20 | AGGGGTCC | -0.0366
21 | CCTGGCGA | -0.131
22 | AAAGTTGC | -0.132

Row | Sequence | PBM E-score
23 | TACCGTCA | 0.0711
24 | TAGCTCAA | -0.216
25 | AGGTCTTG | -0.0124
26 | AAGGGGGA | -0.0957
27 | ATTGTATA | 0.129
28 | TGGCAACA | -0.275
29 | CGGAGGAA | 0.436
30 | AATCCAGT | 0.108
31 | CAACAGGC | -0.109
32 | CCTTAGGA | -0.00492
33 | TATTTCAA | -0.186
34 | AAGGCGGT | -0.121
35 | AGGCTAGG | -0.346
36 | TTGCACAA | -0.157
37 | CGATCATC | -0.0326
38 | AGCATGTG | -0.203
39 | CATGATGA | -0.248
40 | TACGCGAA | -0.0238
41 | CCGCTAAA | 0.216
42 | CCCAGCCC | -0.124
43 | AAGTATCG | 0.0211
44 | GGATCCAA | 0.0511

Row | Sequence | PBM E-score
45 | GGAACGTA | -0.0398
46 | GCATTGCC | 0.0305
47 | CGCGGAAG | 0.316
48 | ACCGGTGC | 0.253
49 | AATAGTTC | -0.00943
50 | AATAACTC | 0.0539
51 | GAAACTTC | 0.0593
52 | ATCCGTCC | 0.18
53 | CGGGTACC | -0.0162
54 | ATTTCCAC | 0.127
55 | AGCTCTTG | -0.261
56 | ATTAAAGG | 0.0275
57 | AGTGCTGA | -0.115
58 | ACGGCGGC | 0.167
59 | CCCTTACC | -0.256
60 | ACGAACCG | -0.0765
61 | AGCCTAAT | -0.184
62 | AATATTAA | 0.0847
63 | ATATATGA | -0.163
64 | AACAACGC | -0.0163
65 | CGGTCCAG | 0.00468
66 | ACGCTAGG | -0.279

Row | Sequence | PBM E-score
67 | CTTTCGTA | -0.173
68 | GACGTACC | -0.0756
69 | GCCAGGCA | -0.0104
70 | CACCCTTA | -0.108
71 | ACGTCAAA | -0.156
72 | GTATGATA | -0.0851
73 | AAGCTTGG | -0.227
74 | ACGCCATG | -0.318
75 | CGCTGGTA | -0.125
76 | AACCACCT | 0.081
77 | AGGAGGAA | -0.165
78 | ACCCAAGT | -0.215
79 | ATACTGGG | -0.0575
80 | AACTAGTC | -0.168
81 | AACGATCG | 0.0379
82 | AGCGTGAC | -0.0417
83 | CAGGAACC | -0.146
84 | CTCTTCCC | -0.134
85 | CACGTCAA | -0.202
86 | ATATCCAT | -0.104
